# Values joined by “and” are separate entries in the source; they are usually repeats but may differ in a detail not shown here. Equal values may be shown once. Inconclusive means that the source gave no clear call. Such entries were picked first, then a sample of the others. Potencies of inconclusive entries are doubtful fits and often do not repeat. The source holds several records for some structures; these can differ, active in one and inactive in another. Active and inactive are the calls of the source. Calls follow the shape of the dose curve; as a rule, active = well fitted curve in the direction sought with a large enough effect in the repeat runs; inconclusive = weak or mixed curves; inactive = no such curve, though single readings can be large; an effect the other way counts as inactive or inconclusive.
# Biological target: Cytochrome P450 1A2 (Homo sapiens) (UniProt P05177)
# Assay: Cytochrome P450 Family 1 Subfamily A Member 2 (CYP1A2) small molecule antagonists: luciferase reporter qHTS assay (AID 1671199)
# Conditions: P450-Glo CYP1A2 enzyme, luciferin luminescence, 1 h; series mostly up to 115 µM
# How it was run: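 Signal from luciferin formed by CYP1A2 from a proluciferin substrate is read as luminescence, expressed in relative luminescence units. Compounds sit with enzyme 10 min, NADPH-driven reaction runs 1 h, all at room temperature.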
# Also: nearly all actives have a fitted effect of over 50% in size.
# Potency is read from the fitted curve at half-maximal effect; tags tell the direction and shape of the fitted curve.
# UniProt P05177, sequence (P05177 whole entry, looked up): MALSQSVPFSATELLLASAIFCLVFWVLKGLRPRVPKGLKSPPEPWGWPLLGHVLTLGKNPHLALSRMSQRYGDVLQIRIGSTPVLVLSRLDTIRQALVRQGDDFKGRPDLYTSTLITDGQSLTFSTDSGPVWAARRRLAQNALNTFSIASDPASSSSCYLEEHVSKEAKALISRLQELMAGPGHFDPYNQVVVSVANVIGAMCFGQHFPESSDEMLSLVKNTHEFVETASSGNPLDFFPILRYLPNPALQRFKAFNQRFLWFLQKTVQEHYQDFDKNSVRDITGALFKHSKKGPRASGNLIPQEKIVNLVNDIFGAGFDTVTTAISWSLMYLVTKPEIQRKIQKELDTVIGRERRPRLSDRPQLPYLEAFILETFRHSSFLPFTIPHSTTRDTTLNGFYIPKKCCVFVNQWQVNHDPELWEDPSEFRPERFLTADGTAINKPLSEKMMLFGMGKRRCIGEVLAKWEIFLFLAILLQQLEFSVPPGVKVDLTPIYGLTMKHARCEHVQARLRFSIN
row,Compound,Potency
1,O=[N+]([O-])c1ccc(O)c([N+](=O)[O-])c1,"inconclusive: 63.5 µM [inhibitor, partial curve, poor fit]"
2,CN1C[C@H](C(=O)N[C@]2(C)O[C@@]3(O)[C@@H]4CCCN4C(=O)[C@H](Cc4ccccc4)N3C2=O)C=C2c3cccc4[nH]cc(c34)C[C@H]21,"inconclusive: 9.33 µM [inhibitor, full curve]"
3,CCCCCCCCCC(CC)c1ccc(S(=O)(=O)O)cc1 (stereo not drawn),"inconclusive: 80.5 µM [inhibitor, partial curve, poor fit] and inconclusive: 80.1 µM [inhibitor] and inconclusive: 34.7 µM [inhibitor, partial curve]"
4,O=C(O)c1cc(I)cc(I)c1I,"inconclusive: 68.2 µM [inhibitor, partial curve]"
5,O=C(CCl)CCl,"inconclusive: 63.3 µM [inhibitor, partial curve]"
6,CC(C)c1ccc(CO)cc1,"inconclusive: 28.3 µM [inhibitor, full curve] and inconclusive: 71 µM [inhibitor, partial curve]"
7,O=c1oc2ccccc2c(O)c1C(CC(O)c1ccc(-c2ccc(Br)cc2)cc1)c1ccccc1 (stereo not drawn),"inconclusive: 67.2 µM [inhibitor, partial curve]"
8,O=C(O)c1c(Cl)ccc2cc(Cl)cnc12,"inconclusive: 63.3 µM [inhibitor, partial curve]"
9,Clc1ccc(C(Cl)(Cl)Cl)cc1Cl,"inconclusive: 69.5 µM [inhibitor, partial curve]"
10,CCCCCC[n+]1ccccc1,"inconclusive: 71.5 µM [inhibitor, partial curve] and inconclusive: 40 µM [inhibitor, partial curve]"
11,CCCN(CCC)CCc1c[nH]c2ccccc12,active: 27.9 µM
12,CC(C)(C)CC(C)(C)c1ccc(O)cc1,"inconclusive: 30.9 µM [inhibitor, partial curve]"
13,CCC(C)(C)c1ccc(O)cc1,"inconclusive: 64 µM [inhibitor, partial curve] and inconclusive: 63.3 µM [inhibitor, partial curve] and inactive"
14,COc1ccc(C=O)cc1O,"inconclusive: 71.4 µM [inhibitor, partial curve]"
15,C(=NC1CCCCC1)=NC1CCCCC1,"inconclusive: 44.8 µM [inhibitor, partial curve]"
16,CCN(CC)CCc1c[nH]c2ccccc12,active: 52.6 µM
17,CCCCCCCCCCn1cc[n+](C)c1,"inconclusive: 39.8 µM [inhibitor, partial curve] [middle of 4 runs]"
18,CN(C)S(=O)(=O)N(SC(F)(Cl)Cl)c1ccccc1,active: 22.4 µM
19,C[C@H](CN1CCOCC1)C(C(=O)N1CCCC1)(c1ccccc1)c1ccccc1,inactive

# Biological target: Voltage-gated inwardly rectifying potassium channel KCNH2 (Homo sapiens) (UniProt Q12809)
# Assay: Human Ether-a-go-go-Related Gene (hERG) channel small molecule antagonists: fluorescence cell-based qHTS assay (AID 1671200)
# Conditions: hERG-U2OS cells, FluxOR thallium flux fluorescence; series mostly up to 76.8 µM
# How it was run: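 Kinetic two-minute fluorescence traces, sampled at 1 s, were collected following thallium stimulus of U2OS cells (1000 per well) that had been cultured overnight at 37 C and loaded with FluxOR II.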
# UniProt Q12809, sequence (Q12809 whole entry, looked up): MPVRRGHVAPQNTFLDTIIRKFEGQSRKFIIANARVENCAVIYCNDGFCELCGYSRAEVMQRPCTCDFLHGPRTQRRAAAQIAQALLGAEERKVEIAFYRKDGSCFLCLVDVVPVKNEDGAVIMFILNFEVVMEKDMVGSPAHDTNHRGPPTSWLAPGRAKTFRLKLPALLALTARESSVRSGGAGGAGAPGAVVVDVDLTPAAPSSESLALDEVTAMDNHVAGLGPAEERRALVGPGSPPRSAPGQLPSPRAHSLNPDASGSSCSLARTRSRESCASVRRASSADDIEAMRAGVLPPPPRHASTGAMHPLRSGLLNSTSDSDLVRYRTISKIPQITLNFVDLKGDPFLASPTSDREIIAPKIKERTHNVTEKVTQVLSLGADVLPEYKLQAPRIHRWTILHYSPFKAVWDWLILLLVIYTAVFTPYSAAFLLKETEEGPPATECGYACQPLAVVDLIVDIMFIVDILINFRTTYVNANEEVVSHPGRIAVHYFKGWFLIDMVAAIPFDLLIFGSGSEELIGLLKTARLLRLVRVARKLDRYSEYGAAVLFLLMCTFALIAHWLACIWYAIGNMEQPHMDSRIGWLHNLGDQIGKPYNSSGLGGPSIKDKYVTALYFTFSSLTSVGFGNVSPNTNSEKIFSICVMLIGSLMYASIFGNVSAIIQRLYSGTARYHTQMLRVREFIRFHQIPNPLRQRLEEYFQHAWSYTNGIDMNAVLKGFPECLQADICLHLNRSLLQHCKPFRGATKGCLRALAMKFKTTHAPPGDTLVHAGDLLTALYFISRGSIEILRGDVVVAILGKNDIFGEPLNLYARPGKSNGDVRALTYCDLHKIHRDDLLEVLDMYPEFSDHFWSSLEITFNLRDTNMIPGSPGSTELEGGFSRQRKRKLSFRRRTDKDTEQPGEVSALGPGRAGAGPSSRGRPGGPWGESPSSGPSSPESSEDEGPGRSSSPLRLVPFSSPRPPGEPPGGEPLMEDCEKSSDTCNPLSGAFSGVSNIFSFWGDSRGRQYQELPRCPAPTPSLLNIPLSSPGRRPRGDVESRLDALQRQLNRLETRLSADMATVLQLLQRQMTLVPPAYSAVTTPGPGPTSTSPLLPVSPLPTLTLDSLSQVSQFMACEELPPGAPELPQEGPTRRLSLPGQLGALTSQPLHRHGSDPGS
row,Compound,Potency
1,Nc1ccc([N+](=O)[O-])cc1,"inconclusive: 54.9 µM [inhibitor, partial curve, poor fit]"
2,ClC1=C(Cl)[C@]2(Cl)[C@@H]3[C@@H](Cl)[C@H]4O[C@H]4[C@@H]3C1(Cl)C2(Cl)Cl,active: 54.9 µM
3,CN1C[C@H](C(=O)N[C@]2(C)O[C@@]3(O)[C@@H]4CCCN4C(=O)[C@H](Cc4ccccc4)N3C2=O)C=C2c3cccc4[nH]cc(c34)C[C@H]21,"inconclusive: 8.1 µM [inhibitor, full curve]"
4,CCCCCCCCCC(CC)c1ccc(S(=O)(=O)O)cc1 (stereo not drawn),"inconclusive: 34.3 µM [inhibitor, partial curve] [middle of 6 runs]"
5,Oc1cc(Cl)c(Cl)c(Cl)c1,"inconclusive: 52.1 µM [inhibitor, single point]"
6,c1ccc(-c2ccccc2)cc1,"inconclusive: 49 µM [inhibitor, partial curve]"
7,Cc1nnc2n1-c1sc(CCc3ccc(CC(C)C)cc3)cc1C(c1ccccc1Cl)=NC2C (stereo not drawn),active: 15.1 µM
8,CCCCCC[n+]1ccccc1,"inconclusive: 55.5 µM [inhibitor, single point] and inconclusive: 49.3 µM [inhibitor, partial curve, poor fit] and inconclusive: 49 µM [inhibitor, partial curve, poor fit]"
9,CCCN(CCC)CCc1c[nH]c2ccccc12,"inconclusive: 43.1 µM [inhibitor, partial curve, poor fit]"
10,CC(C)(C)CC(C)(C)c1ccc(O)cc1,inconclusive: 21.3 µM [inhibitor]
11,CN1C(=O)[C@@H](NC(=O)c2cc3ccccc3[nH]2)N=C(c2ccccc2)c2ccccc21,"inconclusive: 12 µM [inhibitor, full curve]"
12,CC(C)c1ccc(OP(=O)(Oc2ccc(C(C)C)cc2)Oc2ccc(C(C)C)cc2)cc1,"active: 17.5 µM and inconclusive: 17.4 µM [inhibitor, partial curve] and active: 21.9 µM"
13,C[C@H]1CCCC(=O)CCC/C=C/c2cc(O)cc(O)c2C(=O)O1,"inconclusive: 29.8 µM [inhibitor, partial curve, poor fit]"
14,CN(C)S(=O)(=O)N(SC(F)(Cl)Cl)c1ccccc1,active: 19.5 µM

# From PubChem BioAssay (Tox21)
